From the supplement of paper PMC11417369
Some of the results follow.

system: PfSIP2 AP2 domain 1 (GST-tagged); experiment: gcPBM binding intensity (ln(normalized median fluorescence intensity)); higher = stronger DNA binding
Outline: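 An Agilent 4 × 180k array carrying primer-extended double-stranded 36-bp intergenic genomic probes and negative controls received GST-tagged P. falciparum DNA-binding domains expressed in E. coli, about 25 μg on average, for 1 h. The binding buffer contained 1× PBS, 1% milk, 0.2 mg/ml BSA, 0.5% salmon testes DNA and 0.03% Triton X-100. Binding intensity is the top Masliner-normalised natural-log median intensity across replicate spots of either probe orientation, read after Alexa488 anti-GST antibody staining and a 488 nm scan.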

Sequence	gcPBM binding intensity (ln)
ATAAAAATATTATAAGCACACATATATATATATATA [CACACA_site8781]	9.62
AGTATACATATATATACACACATATATATATATATA [CACACA_site300]	9.52
TTATGCCTTTAATATACACACTAATATTTTTTTGGC [CACACA_site5171]	6.92
AATTTTTTTTTTAGACGTACAAGAAAAAACAAAAAA [XGTACX_site4990]	7.07
AACTATAAAAATTTTACACACTGTTTTTAAATAATG [CACACA_site5928]	7.06
TATATGAAGTACACAATACACACTAATTATATATAA [CACACA_site2608]	7.12
AAGGAAATATAATATACACACATAAGTGTACTTATA [CACACA_site4030]	6.91
TAATAAAGTGAATAATGTACATTTTATTTATTATAT [XGTACX_site6614]	6.95
ATTATATATCCCTATTCACACATGTATTATATAAAT [CACACA_site5486]	7.27
GAAAAATTAAAAATAACACACACATATATATATTTA [CACACA_site8896]	6.98
TCAGTAATACTTGAATGTACTTATATTGTTTGTTTG [XGTACX_site6449]	6.64
CCTATATTAAAACAAGCACACAATCGCATAATATCC [CACACA_site9052]	7.09
TTAACATATTTGTTAGTGCATTTTGATATTACACAT [GTGCAC_site9978]	8.47
AAAAAAATTAAATGTACACACACCTTAAACAATGTC [CACACA_site1855]	6.88
TCTTTTTCTTGACGAGTGCAAAAATTGTGTTTGAAA	9.16
ATTTATTTTATATGTTGTACAAACATTTTAAAACAT [XGTACX_site6919]	6.95
ATAAATAAATAAATAAATAAATAAATAAATATATAT [CACACA_negctrl_site1728]	7.22
CTAATATCTGTATGCACACACAATAAATACATATTT [CACACA_site5797]	7.69
AATGCCTTGTTGAGGTGTACTGAATGTTATTTTAAT [XGTACX_site3255]	6.99
TTTTTTTAAAGAATTATCATAAAATGATTGCATCAT [XGTACX_negctrl_site141]	6.59
ATCAACATCTAACATTGTACATGTGATGTGTAAAAG [XGTACX_site547]	7.01
ATATTTGCCCAAGATAGTACATATATATATATATAT [XGTACX_site7756]	9.38

Sequence	gcPBM binding intensity (ln)
ATATTGGAGCACAACACACACAAGTATATATATGGA [CACACA_site1546]	7.24
AAATAGCCAAAAATCATGCACACCTAAAAAAAAAAA [CACACA_site2572]	7.52
TATATATATATATATTGTACATATATTATTATATAT [XGTACX_site7447]	9.24
AATTCTCTTAATAAATAAACACAAATAAATAATAAA [GTGCAC_negctrl_site499]	6.93
CACATACAGACATACACACACATATATATTAATATA [CACACA_site546]	7.37
CATACATACAAACACACACACACACCGATATATATA [CACACA_site8952]	7.3
TATATAATAAAAAAAAGTACTTGGACAATATTATTT [XGTACX_site2802]	6.95
TTAATTTACATGAACTGTACATAACATTTTTTTAAA [XGTACX_site4672]	6.82
ATCAAAATATTTATATGTACATATTAAAAATATAGA [XGTACX_site725]	7.1
TTGTGTTTTATTATTTTATTATTACTATTATAATGT [GTGCAC_negctrl_site484]	7.19
ATAAAACATAAATACATACACACATAATATATATTA [CACACA_site110]	7.07
TAAAAATGGGTATGTACACACTTTATTTTTAATACA [CACACA_site5404]	7.05
TGTAATGTTTACAACACACAAATTAGAAATACAAAA [CACACA_site6924]	6.92
ACATATTTAAAAACATGTACAAATATATTTATAATT [XGTACX_site661]	7.17
AAGGAAGATATATACACACATACAAATATATATATA [CACACA_site2181]	8.66
TTATTTATAATGTTGTGTACATATATGAATATACCA [XGTACX_site3111]	6.93
AAGAAAAAATAAAGCACACAAATATTTTAAAAACAC [CACACA_site3325]	7.63
TTTTTTCAATTGGAAATTATTTTACAATGAAGGGTA [XGTACX_negctrl_site469]	7.09
TATTTTACGTATTGTTGTACTTGAAACAAATATACA [XGTACX_site8778]	7.15
TATAAACATAAATATACACACAAACATATATGTATT [CACACA_site8324]	6.93
CGTTTCCCCAATGGTTGTACAATATATATATATATA [XGTACX_site8641]	9.58
AGACATATAATATATACACACATATATATATATATA [CACACA_site1066]	9.06

Sequence	gcPBM binding intensity (ln)
TTATTCTAGTAGTGTGTGCGCATGGACAATGCAATA	8.32
ATACATATAATATATGCATGTACCAATCAAATATAT [TGCATGCA_site192]	7
TATATATCGTTATATACACACATGTATATAAAAAAT [CACACA_site7501]	6.98
ATATTTTATTTATATACACACACATATATATATTAT [CACACA_site8177]	7.3
CTTTATATAAAATAAAGTACATAAATTATGATATAT [XGTACX_site3699]	7.11
TTCTTTATATACAAACCAAAATATTATGTATAATAA [CACACA_negctrl_site15]	7.04
TTATTATATATTTTATTTATTAATAGTATATATTAT [TGCATGCA_negctrl_site155]	6.67
TAATTTTTTTTTATGATACACACTTGGATAATTAAA [CACACA_site562]	6.88
TTAACCTTTATATAATACGTATCATCCTCATATATA [CACACA_negctrl_site86]	7.1
ATATAAAATCAACAAAAAAAAAAAATATATATATAT [XGTACX_negctrl_site251]	9.03
TGTATATATTTGTGCACACCAAAGTTTGATTTTATT [CACACA_site1860]	10
TATTATAACTAAAAAAATCACATAAAATACTTTATT [CACACA_negctrl_site2]	6.61
TTATATTTTTTAATTACACACAATTCTTATAAATAT [CACACA_site7870]	6.94
TATATACACATGCGCACACACAAGTGGGAAATTTGG [CACACA_site6930]	7.33
AATATTTGCCTATGTTGTACTGACATTTTTTTAAGT [XGTACX_site6836]	7.06
ATATATAATATATGATGTACTTAATAATTTTTTTTT [XGTACX_site5715]	7.07
TAATAATCCACAAGCACACACACACCCATATATATA [CACACA_site1267]	7.41
TTAAGGATCCACGATACACACATATCATTCAACAAA [CACACA_site1924]	6.81
TTTTGACATTAATTACTATAGTGTTCTTATAAAATT [TGCATGCA_negctrl_site589]	6.97
CATTTTATTTTAATATGTACTTAAAGAAAAAAAATT [XGTACX_site7670]	7.1
AATACATAAAAATAAAAATAAAATATAACTAATATG [CACACA_negctrl_site186]	6.87
TTATACATATATTTAACACACATTTTATAAAGTGCC [CACACA_site1314]	7.02

Sequence	gcPBM binding intensity (ln)
AAAACTATAATGAATAGTACATAAAAATGGATATAT [XGTACX_site6056]	7.38
AATCGATAAAATGTTGTGCACATATTTTTATATTTA [GTGCAC_site9651]	9.71
TTAAATTACTAATGTGCACACATACTAACGTTTAAA [CACACA_site3573]	9.21
TATCTTATTTTATCTCGTACATAAAATTAAAAAATT [XGTACX_site3636]	7.15
AATATGTATCCATACACACATACATTTTATTTGCAA [CACACA_site874]	6.98
TTTTATTTATTATTTACACACACGTAGGTGTCCATA [CACACA_site430]	7.05
TTCATTCTATAAAACACACAAATATTTTTGTATCCC [CACACA_site6458]	6.8
TTTTGTGATCTTACCACCTTTCATAATATTAATAAA [GTGCAC_negctrl_site360]	7.12
ATATATTTTAATGATACACACAAGAAATAAAATTAC [CACACA_site5671]	7.18
ATAGAACAATTCAGAAGTACATAAAAAGAAAAATTT [XGTACX_site3015]	6.9
TTGGATGATTAAGGGGGACACACGTTTATATATTTA [CACACA_site338]	7.61
ACTTTTTTAATGTTACGTACACATAAATAATAATTA [XGTACX_site8092]	7.64
TTTCACAAATGATATAGTACTTTTTATTATTAACAT [XGTACX_site7976]	6.95
TAAAAAAAAAAAAAAGTACACACTTATAAAATATTA [CACACA_site872]	7.17
ATATATTTTTTGAATACACACATATTATATGTAATA [CACACA_site1256]	6.87
GTTACACCAACAAACACACACACACCGACACCCAAA [CACACA_site5361]	7.24
AAATGTAAAATTTTATGTACATATATTTATATAATA [XGTACX_site3737]	7.22
ACAAATGAGATTATATGTACACATAACAAATTTACA [XGTACX_site3496]	7.04
ATGTTTTATAAAAGGCGTACACATATATTTAAGTAA [XGTACX_site6231]	8.36
TTTATTTATTTAATTACACACGAACATATAACCATT [CACACA_site7952]	7.24
AAATTGGGGCTTGTTACACACTTAGTGTGAGTTCTA [CACACA_site6417]	6.77
ATTTATAATATGTATACACACACATATATAAATATA [CACACA_site8729]	7.12
